The text below walks through data of US10695333B2 (NOVARTIS AG, priority 2017, dated 2020).

The subject of the assay is D538G ER mutant MCF-7 xenograft. Description: D538G ER mutant MCF-7 breast cancer model in NSG mice. Particulars: for Tumor response Regression / Tumor response ΔT/ΔC: Day 74; for Tumor response in words: LSZ102 80 mg/kg daily, fulvestrant 5 mg/mouse weekly. It counts as in vivo, mouse.

Each structure is given as a SMILES string.

Turning to `C[C@]12CC[C@@H]3c4ccc(O)cc4C[C@@H](CCCCCCCCC[S+]([O-])CCCC(F)(F)C(F)(F)F)[C@H]3[C@@H]1CC[C@@H]2O` (stereo partly drawn) [Fulvestrant, reference compound], the “Tumor response in words” value is “also active”. Also, for the setting “5 mg/mouse SC QWeek”, the “Tumor response Regression” value was determined as 28.1% and the “Tumor response ΔT/ΔC” value is reported as −66.5%.
For `CC(F)(F)c1cc(F)ccc1-c1sc2cc(O)ccc2c1Oc1ccc(/C=C/C(=O)O)cc1` [LSZ102, (E)-3-(4-((2-(2-(1,1-difluoroethyl)-4-fluorophenyl)-6-hydroxybenzo[b]thiophen-3-yl)oxy)phenyl)acrylic acid], the “Tumor response in words” value is “regressed the D538G ER expressing MCF-7 xenografts”. Moreover, where the note is “80 mg/kg QD PO”, the “Tumor response Regression” value came out at 37.7% and the “Tumor response ΔT/ΔC” value is on record as −89.3%.
